# Inconclusive means that the source gave no clear call. Such entries were picked first, then a sample of the others. Entries that show only a call come without a potency. For some of these results: Where the call is inconclusive, the potency comes from a doubtful curve fit. The source made the active and inactive calls. Unless noted, the call rests on the fitted dose curve.
# How the values were obtained:
# [1] = qHTS assay for small molecule agonists of the antioxidant response element (ARE) signaling pathway (AID 743202; active means well fitted activation curve with a large enough effect in the signal ratio in the repeat runs, not every such curve was filed as active; inconclusive means weak or mixed curves, or effect the other way; inactive means no such curve, though single readings can be large or run the other way; the % refers to the signal ratio; further: potency means the concentration at half of the fitted maximal effect); conditions: HepG2 ARE-bla reporter, beta-lactamase FRET, 16 h; activation: at 73.3 µM (top of the series) unless noted
# How it was run: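 Steps: seed ARE-bla HepG2 cells (2,000/well); incubate 5 h at 37 C; add compounds by pin tool; incubate 16 h at 37 C; add FRET substrate; read fluorescence after 2 h at RT.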
# [2] = target: Peroxisome proliferator-activated receptor delta (Homo sapiens) (UniProt Q03181); experiment: qHTS assay to identify small molecule agonists of the peroxisome proliferator-activated receptor delta (PPARd) signaling pathway (AID 743212); conditions: HEK293H PPARd-UAS-bla, beta-lactamase FRET ratio, 17 h; activation: at 62.6 µM (top of the series) unless noted; further: potency means the concentration at half of the fitted maximal effect
# How it was run: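 Cells expressing a UAS-driven beta-lactamase reporter (PPARd-bla HEK293H) were given test compounds after a 5 h settle and kept at 37 C. Reporter activity was then measured as FRET fluorescence using LiveBLAzer B/G substrate.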
# [3] = qHTS assay to identify small molecule antagonists of the peroxisome proliferator-activated receptor delta (PPARd) signaling pathway - cell viability counter screen (AID 743213; active means well fitted curve in the direction sought with a large enough effect in the repeat runs; inconclusive means weak or mixed curves; inactive means no such curve, though single readings can be large; an effect the other way counts as inactive or inconclusive; further: nearly all actives have a fitted effect of over 50% in size; further: potency means the concentration at half of the fitted maximal effect); conditions: PPARd-bla HEK293H viability, CellTiter-Glo luminescence, 17 h; viability change, negative = cytotoxic: at 62 µM (top of the series) unless noted
# How it was run: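 HEK293H cells with the PPARd UAS-bla reporter, co-treated 17 h at 37 C with compounds and L165041 (300 nM final), were lysed with CellTiter-Glo. Luminescence indicated viable cell content.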
# [4] = target: Peroxisome proliferator-activated receptor delta (Homo sapiens) (UniProt Q03181); experiment: qHTS assay to identify small molecule antagonists of the peroxisome proliferator-activated receptor delta (PPARd) signaling pathway (AID 743215; active means well fitted inhibition curve with a large enough effect in the signal ratio in the repeat runs, not every such curve was filed as active; inconclusive means weak or mixed curves, or effect the other way; inactive means no such curve, though single readings can be large or run the other way; the % refers to the signal ratio;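 further: cells stimulated with agonist L165041 at 300 nM final during compound exposure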; further: potency means the concentration at half of the fitted maximal effect); conditions: HEK293H PPARd-UAS-bla, beta-lactamase FRET ratio, antagonist, 17 h; ratio activity, negative = inhibition: at 62 µM (top of the series) unless noted
# How it was run: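 Agonist L165041 (300 nM final) added with compound to PPARd-bla HEK293H UAS-bla reporter cells; 17 h incubation at 37 C. Read-out: LiveBLAzer FRET substrate, 2 h at room temperature, fluorescence intensity.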
# [5] = qHTS assay to identify small molecule agonists of the AP-1 signaling pathway (AID 1159526); conditions: ME-180 (cervical carcinoma) AP-1-bla reporter, beta-lactamase FRET ratio, 5 h; activation: at 76.8 µM (top of the series) unless noted; further: potency means the concentration at half of the fitted maximal effect
# [6] = qHTS assay to identify small molecule agonists of the peroxisome proliferator-activated receptor delta (PPARd) signaling pathway - cell viability counter screen (AID 743211; active means well fitted curve in the direction sought with a large enough effect in the repeat runs; inconclusive means weak or mixed curves; inactive means no such curve, though single readings can be large; an effect the other way counts as inactive or inconclusive; further: nearly all actives have a fitted effect of over 55% in size; further: potency means the concentration at half of the fitted maximal effect); conditions: PPARd-bla HEK293H viability, CellTiter-Glo luminescence, 17 h; activity change, negative = cytotoxicity: at 62.6 µM (top of the series)
# How it was run: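 Following 5 h plating at 37 C and 5% CO2, PPARd UAS-bla HEK293H cells took up test compounds for 17 h. Viability was quantified by luminescence 30 min after CellTiter-Glo addition at room temperature.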
# [7] = qHTS assay to identify small molecule agonists of the farnesoid-X-receptor (FXR) signaling pathway - cell viability counter screen (AID 743218; active means well fitted curve in the direction sought with a large enough effect in the repeat runs; inconclusive means weak or mixed curves; inactive means no such curve, though single readings can be large; an effect the other way counts as inactive or inconclusive; further: nearly all actives have a fitted effect of over 45% in size; further: potency means the concentration at half of the fitted maximal effect); conditions: FXR-bla HEK293T viability, CellTiter-Glo luminescence, 16 h; viability change, negative = cytotoxic: at 62.6 µM (top of the series) unless noted
# How it was run: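 Viability counter screen in the same wells: CellTiter-Glo luminescence, 30 min room-temperature incubation, measured after the beta-lactamase read. Cells were GeneBLAzer FXR-UAS-bla HEK 293T, compound-treated 16 h at 37C.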
# [8] = target: Vitamin D3 receptor (Homo sapiens) (UniProt P11473); experiment: qHTS assay to identify small molecule antagonists of the vitamin D receptor (VDR) signaling pathway (AID 743223; active means well fitted inhibition curve with a large enough effect in the signal ratio in the repeat runs, not every such curve was filed as active; inconclusive means weak or mixed curves, or effect the other way; inactive means no such curve, though single readings can be large or run the other way; the % refers to the signal ratio; further: potency means the concentration at half of the fitted maximal effect); conditions: VDR-UAS-bla HEK293T, beta-lactamase FRET ratio, 16 h; activity change, negative = inhibition: at 61 µM (top of the series) unless noted
# How it was run: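 Beta-lactamase activity in VDR-bla cells is measured by FRET substrate fluorescence (2 h, room temperature) after cells spend 16 h at 37C with test compound and 3 nM final 1alpha,25-dihydroxyvitamin D3.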
# [9] = target: Vitamin D3 receptor (Homo sapiens) (UniProt P11473); experiment: qHTS assay to identify small molecule agonists of the vitamin D receptor (VDR) signaling pathway (AID 743222); conditions: HEK293T VDR-UAS-bla, beta-lactamase FRET ratio, 16 h; activation: at 63.5 µM (top of the series) unless noted; further: potency means the concentration at half of the fitted maximal effect
# How it was run: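 Agonist mode, beta-lactamase reporter: fluorescence from LiveBLAzer B/G FRET substrate (2 h, room temperature) read after 16 h compound treatment at 37 C of VDR-bla cells, which were pre-incubated 4 h after seeding.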
# [10] = target: Bile acid receptor (Homo sapiens) (UniProt Q96RI1); experiment: qHTS assay to identify small molecule agonists of the farnesoid-X-receptor (FXR) signaling pathway (AID 743220; active means well fitted activation curve with a large enough effect in the signal ratio in the repeat runs, not every such curve was filed as active; inconclusive means weak or mixed curves, or effect the other way; the % refers to the signal ratio); conditions: HEK293T FXR-UAS-bla, beta-lactamase FRET ratio, 16 h; activation: at 62.6 µM (top of the series)
# How it was run: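 FXR-UAS-bla HEK 293T cells carrying a UAS-driven beta-lactamase reporter were plated for 5 h at 37C/5% CO2, then exposed to DMSO-dissolved Tox21 10K compounds for 16 h at 37C. A LiveBLAzer B/G FRET substrate was loaded for 2 h at room temperature before fluorescence reading.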
# [11] = qHTS assay for small molecule activators of the heat shock response signaling pathway (AID 743210; active means well fitted activation curve with a large enough effect in the signal ratio in the repeat runs, with a control signal flat, not every such curve was filed as active; inconclusive means weak or mixed curves; the % refers to the signal ratio; further: potency means the concentration at half of the fitted maximal effect;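 on activation: HeLa cells with beta-lactamase reporter driven by heat shock elements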); conditions: HeLa HSE-bla reporter, beta-lactamase ratio, 5 h; activation: at 62.6 µM (top of the series) unless noted
# How it was run: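 Activation of heat shock element-controlled beta-lactamase expression is measured in HeLa cells by LiveBLAzer FRET fluorescence, with compound exposure lasting 5 h at 37 C and substrate loading 2.5 h at room temperature.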
# [12] = qHTS assay to identify small molecule agonists of the vitamin D receptor (VDR) signaling pathway - cell viability counter screen (AID 743224; active means well fitted curve in the direction sought with a large enough effect in the repeat runs; inconclusive means weak or mixed curves; inactive means no such curve, though single readings can be large; an effect the other way counts as inactive or inconclusive; further: nearly all actives have a fitted effect of over 50% in size; further: potency means the concentration at half of the fitted maximal effect); conditions: VDR-bla HEK293T viability, CellTiter-Glo luminescence, 16 h; activity change, negative = cytotoxicity: at 62.6 µM (top of the series)
# How it was run: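 Counter screen run in the same wells as the VDR-bla reporter assay: CellTiter-Glo luminescence, 30 min at room temperature, after 16 h compound treatment at 37C of cells pre-plated for 4 h.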
# [13] = target: Bile acid receptor (Homo sapiens) (UniProt Q96RI1); experiment: qHTS assay to identify small molecule antagonists of the farnesoid-X-receptor (FXR) signaling pathway (AID 743217; active means well fitted inhibition curve with a large enough effect in the signal ratio in the repeat runs, not every such curve was filed as active; inconclusive means weak or mixed curves, or effect the other way; inactive means no such curve, though single readings can be large or run the other way; the % refers to the signal ratio); conditions: HEK293T FXR-UAS-bla, beta-lactamase ratio, CDCA-stimulated, 16 h; activity change, negative = inhibition: at 62.6 µM (top of the series) unless noted
# How it was run: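 Antagonist mode: chenodeoxycholic acid at 50 uM final stimulates a UAS-driven beta-lactamase reporter in HEK 293T FXR-bla cells during 16 h, 37C compound exposure. Read-out is FRET substrate fluorescence after 2 h at room temperature.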
# [14] = qHTS assay to identify small molecule antagonists of the vitamin D receptor (VDR) signaling pathway - cell viability counter screen (AID 743225; active means well fitted curve in the direction sought with a large enough effect in the repeat runs; inconclusive means weak or mixed curves; inactive means no such curve, though single readings can be large; an effect the other way counts as inactive or inconclusive; further: nearly all actives have a fitted effect of over 50% in size; further: potency means the concentration at half of the fitted maximal effect); conditions: VDR-bla HEK293T viability, CellTiter-Glo luminescence, 16 h; viability change, negative = cytotoxic: at 61 µM (top of the series) unless noted
# How it was run: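 In this counter screen, VDR-bla HEK 293T cells receive test compound plus 3 nM final calcitriol for 16 h at 37C. Room-temperature steps of 2 h with the beta-lactamase substrate, then 30 min with CellTiter-Glo, precede the luminescence read.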
# [15] = qHTS assay to identify small molecule antagonists of the farnesoid-X-receptor (FXR) signaling pathway - cell viability counter screen (AID 743221; active means well fitted cell-killing curve with a large enough effect in the repeat runs, not every such curve was filed as active; inconclusive means weak or mixed curves, or effect the other way; inactive means no such curve, though single readings can be large or run the other way; further: potency means the concentration at half of the fitted maximal effect; nearly all actives have a fitted effect of over 50% in size); conditions: FXR-bla HEK293T viability, CellTiter-Glo luminescence, 16 h; activity change, negative = cytotoxicity: at 62.6 µM (top of the series) unless noted
# How it was run: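 Compound effects on cell number were measured as CellTiter-Glo luminescence in HEK 293T cells expressing FXR-UAS-bla, after 16 h at 37 C with 50 uM CDCA (final).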
# Tags describe the fitted curve by direction and shape or compound fluorescence and quenching.
# UniProt P11473, sequence (P11473 whole entry, looked up): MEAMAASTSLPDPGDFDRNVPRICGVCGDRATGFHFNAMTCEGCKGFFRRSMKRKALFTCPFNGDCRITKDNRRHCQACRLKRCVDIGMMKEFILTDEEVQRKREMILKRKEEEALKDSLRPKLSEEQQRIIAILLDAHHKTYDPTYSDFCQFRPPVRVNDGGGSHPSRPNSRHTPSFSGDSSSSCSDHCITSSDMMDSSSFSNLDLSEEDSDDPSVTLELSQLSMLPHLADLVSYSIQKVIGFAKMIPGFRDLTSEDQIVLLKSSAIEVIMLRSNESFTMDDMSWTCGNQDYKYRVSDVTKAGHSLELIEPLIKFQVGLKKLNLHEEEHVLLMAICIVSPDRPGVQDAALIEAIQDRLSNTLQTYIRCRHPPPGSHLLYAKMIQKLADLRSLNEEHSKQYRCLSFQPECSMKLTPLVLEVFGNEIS
# UniProt Q03181, sequence (Q03181 whole entry, looked up): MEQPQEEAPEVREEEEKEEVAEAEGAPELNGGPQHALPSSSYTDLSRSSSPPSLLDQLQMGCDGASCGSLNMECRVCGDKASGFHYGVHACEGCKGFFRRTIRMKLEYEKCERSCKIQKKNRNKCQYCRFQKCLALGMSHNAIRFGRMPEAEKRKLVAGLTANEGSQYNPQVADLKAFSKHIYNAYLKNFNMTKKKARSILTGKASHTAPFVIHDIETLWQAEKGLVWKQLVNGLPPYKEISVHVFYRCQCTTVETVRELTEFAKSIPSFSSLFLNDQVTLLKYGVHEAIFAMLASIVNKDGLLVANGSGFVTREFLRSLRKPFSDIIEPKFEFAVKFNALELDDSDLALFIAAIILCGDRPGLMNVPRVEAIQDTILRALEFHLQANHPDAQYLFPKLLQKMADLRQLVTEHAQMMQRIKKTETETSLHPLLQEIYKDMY
# UniProt Q96RI1, sequence (Q96RI1 whole entry, looked up): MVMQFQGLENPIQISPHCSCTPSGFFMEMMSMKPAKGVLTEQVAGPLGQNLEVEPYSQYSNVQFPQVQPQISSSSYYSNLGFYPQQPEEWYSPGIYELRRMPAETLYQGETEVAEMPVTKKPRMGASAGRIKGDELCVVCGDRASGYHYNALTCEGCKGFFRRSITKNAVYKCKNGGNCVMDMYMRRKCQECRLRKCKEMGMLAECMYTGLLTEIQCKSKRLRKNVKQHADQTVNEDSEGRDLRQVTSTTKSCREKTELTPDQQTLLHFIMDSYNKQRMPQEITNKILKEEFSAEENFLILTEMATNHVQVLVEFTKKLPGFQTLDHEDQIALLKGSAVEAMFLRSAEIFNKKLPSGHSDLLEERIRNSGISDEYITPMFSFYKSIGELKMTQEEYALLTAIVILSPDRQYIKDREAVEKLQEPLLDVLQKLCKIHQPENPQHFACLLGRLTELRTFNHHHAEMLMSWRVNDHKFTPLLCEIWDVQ
structure (smiles),measurement,setting,value
C[C@H](N)C(=O)N[C@@H](C)C(=O)NC1[C@H]2CN(c3nc4c(cc3F)c(=O)c(C(=O)O)cn4-c3ccc(F)cc3F)C[C@@H]12 (some centres not stated),Potency,[1],"inconclusive: 10.6 µM [falling, partial curve, poor fit]"
same,activation,[2],inconclusive: 7.05%
same,Potency,[3],"inconclusive: 2.37 µM [rising, full curve, poor fit]"
same,Potency,[4],"inconclusive: 29.8 µM [activator, single point]"
same,Potency,[5],inactive
CCCCNc1ccc(C(=O)OCCN(CC)CC)cc1,activation,[1],inconclusive: 17.9%
same,Potency,[6],inactive
same,"viability change, negative = cytotoxic",[3],inconclusive: -33.5% [cytotoxic]
same,Potency,[7],inactive
same,"activity change, negative = inhibition",[8],inconclusive: -1.27%
same,activation,[5],inconclusive: 35.2% [at 35.3 µM]
CCCCCCC(=O)OCC,Potency,[1],"inconclusive: 43.3 µM [rising, partial curve, poor fit]"
same,Potency,[6],inactive
same,Potency,[4],inactive
same,Potency,[7],inactive
same,Potency,[9],inactive
same,Potency,[5],inactive
CC1CCc2cc(F)cc3c(=O)c(C(=O)O)cn1c23 (configuration not stated),Potency,[1],inactive
same,Potency,[2],inactive
same,"ratio activity, negative = inhibition",[4],inconclusive: 1.02%
same,activation,[5],inconclusive: -6.61% [at 35.3 µM]
Cc1nc(-c2ccccn2)ncc1C(=O)Nn1cc(C)c2cc(F)ccc21,Potency,[1],"inconclusive: 77 µM [rising, partial curve, poor fit]"
same,Potency,[6],"inconclusive: 54.9 µM [cytotoxic, single point]"
same,Potency,[4],"inconclusive: 54.9 µM [inhibitor, partial curve, poor fit]"
same,activation,[10],inconclusive: 5.9%
same,Potency,[8],inactive
same,activation,[5],inconclusive: 22.2%
CCOC(=O)COC(=O)c1ccccc1C(=O)OCC,Potency,[1],inactive
same,Potency,[2],inactive
same,Potency,[3],inactive
same,Potency,[5],inactive
C[C@@H](c1ncncc1F)C(O)(Cn1cncn1)c1ccc(F)cc1F (some centres not stated),Potency,[1],inactive
same,Potency,[11],inactive
same,activation,[10],inconclusive: 3.77%
same,Potency,[5],inactive
O=C(O)Cc1c(Cl)ccc(Cl)c1Cl,Potency,[1],inactive
same,Potency,[2],inactive
same,Potency,[10],inactive
same,Potency,[12],inactive
same,Potency,[5],inactive
CC(C)(C)c1ccc(-c2ccc(C(C)(C)C)cc2)cc1,Potency,[1],inactive
same,Potency,[2],inactive
same,Potency,[13],inactive
same,Potency,[5],inactive
CCCCCCOC(=O)CCC,Potency,[1],inactive
same,Potency,[11],inactive
same,Potency,[4],inactive
same,"activity change, negative = inhibition",[13],inconclusive: 3.88%
same,"activity change, negative = inhibition",[8],inconclusive: -9.52%
same,activation,[5],inconclusive: -1.41%
c1ccc2c(c1)ccc1ccccc12,Potency,[1],inactive
same,Potency,[6],"inconclusive: 12.3 µM [rising, full curve]"
same,Potency,[7],inactive
same,Potency,[8],inactive
same,Potency,[5],"inconclusive: 53.5 µM [activator, partial curve, poor fit]"
COc1ccc2nc(NC(=O)Nc3ccccc3)sc2c1,Potency,[1],inconclusive: 1.06 µM
same,Potency,[11],"inconclusive: 13.3 µM [activator, single point]"
same,Potency,[9],inactive
same,Potency,[8],inactive
same,Potency,[5],inconclusive: 26.8 µM
CCN(CC)C(C)CN1c2ccccc2Sc2ccccc21 (configuration not stated),activation,[1],inconclusive: -8.59%
same,activation,[2],inconclusive: 8.98%
same,Potency,[8],inactive
same,Potency,[12],inactive
same,Potency,[5],"inconclusive: 1.9 µM [falling, partial curve, poor fit]"
CN(C(=O)CCCOc1ccc2[nH]c(=O)ccc2c1)C1CCCCC1,Potency,[1],inactive
same,Potency,[2],inconclusive: 11.9 µM
same,Potency,[4],"inconclusive: 29.8 µM [activator, partial curve]"
same,Potency,[13],inactive
same,"activity change, negative = inhibition",[8],inconclusive: 36.1%
same,activation,[5],inconclusive: -1.12% [at 35.3 µM]
Cc1ccccc1C#N,activation,[1],inconclusive: 4.69%
same,Potency,[11],inactive
same,Potency,[12],inactive
same,Potency,[5],inactive
N[C@@H](Cc1c[nH]c2ccc(O)cc12)C(=O)O,Potency,[1],inactive
same,Potency,[6],inactive
same,Potency,[4],inactive
same,Potency,[14],"inconclusive: 672 nM [cytotoxic, full curve, poor fit] and inactive"
same,Potency,[5],inactive
C=CCCCCCC,Potency,[1],inactive
same,Potency,[11],inconclusive: 56.1 µM [activator]
same,Potency,[13],inactive
same,Potency,[15],"inconclusive: 23.6 µM [falling, partial curve, poor fit]"
same,Potency,[9],"inconclusive: 59.4 µM [rising, partial curve, poor fit]"
same,"activity change, negative = inhibition",[8],inconclusive: 20%
same,Potency,[12],inconclusive: 52.9 µM [cytotoxic]
same,Potency,[5],inconclusive: 59.4 µM [activator]
CCCCCCCCCCCC(=O)OC[C@@H](O)[C@H]1OC[C@H](OCCO)[C@H]1OCCO,Potency,[1],"inconclusive: 47.4 µM [rising, partial curve]"
same,Potency,[6],"inconclusive: 26.9 µM [cytotoxic, partial curve, poor fit]"
same,Potency,[3],"inconclusive: 0.85 µM [cytotoxic, full curve]"
same,Potency,[4],"inconclusive: 21.3 µM [rising, partial curve, poor fit]"
same,Potency,[7],inconclusive: 21.3 µM [cytotoxic]
same,Potency,[8],"inconclusive: 6.02 µM [rising, full curve, poor fit]"
same,Potency,[12],"inconclusive: 4.78 µM [cytotoxic, full curve]"
same,Potency,[14],"inconclusive: 10.7 µM [cytotoxic, partial curve, poor fit]"
same,Potency,[5],inactive

# Source: PubChem BioAssay (Tox21)
